Test results published in publication PMC7181608.
Changes are numbered by the printed parent chain. Results are given in words; binding and its absence hold for the method and conditions named. In cells and extracts the contact can be indirect. Some entries that bind do so weakly or less than the wild type. For some assays here: Tags and fused reporters may be left off the sequences shown.

Amino acid sequences for entries named in this document (tags omitted).
UniProt P13010: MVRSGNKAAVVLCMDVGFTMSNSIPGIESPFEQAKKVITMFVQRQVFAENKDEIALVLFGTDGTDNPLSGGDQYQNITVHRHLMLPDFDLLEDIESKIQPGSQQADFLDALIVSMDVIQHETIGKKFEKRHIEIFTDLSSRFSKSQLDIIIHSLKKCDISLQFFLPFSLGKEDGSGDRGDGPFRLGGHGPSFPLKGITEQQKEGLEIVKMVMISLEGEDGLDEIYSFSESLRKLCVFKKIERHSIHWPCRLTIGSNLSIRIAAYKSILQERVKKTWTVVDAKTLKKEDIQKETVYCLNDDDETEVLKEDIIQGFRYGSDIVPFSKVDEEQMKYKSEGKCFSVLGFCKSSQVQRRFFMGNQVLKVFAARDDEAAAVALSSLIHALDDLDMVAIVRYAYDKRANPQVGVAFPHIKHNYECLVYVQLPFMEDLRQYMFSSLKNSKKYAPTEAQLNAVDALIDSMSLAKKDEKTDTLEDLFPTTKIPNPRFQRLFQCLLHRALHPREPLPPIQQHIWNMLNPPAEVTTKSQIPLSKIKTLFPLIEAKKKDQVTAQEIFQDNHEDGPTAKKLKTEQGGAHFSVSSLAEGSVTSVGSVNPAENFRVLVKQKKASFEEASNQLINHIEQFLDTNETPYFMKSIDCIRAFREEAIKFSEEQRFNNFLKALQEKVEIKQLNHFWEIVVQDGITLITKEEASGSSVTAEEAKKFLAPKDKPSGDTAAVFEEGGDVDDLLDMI
UniProt P12956: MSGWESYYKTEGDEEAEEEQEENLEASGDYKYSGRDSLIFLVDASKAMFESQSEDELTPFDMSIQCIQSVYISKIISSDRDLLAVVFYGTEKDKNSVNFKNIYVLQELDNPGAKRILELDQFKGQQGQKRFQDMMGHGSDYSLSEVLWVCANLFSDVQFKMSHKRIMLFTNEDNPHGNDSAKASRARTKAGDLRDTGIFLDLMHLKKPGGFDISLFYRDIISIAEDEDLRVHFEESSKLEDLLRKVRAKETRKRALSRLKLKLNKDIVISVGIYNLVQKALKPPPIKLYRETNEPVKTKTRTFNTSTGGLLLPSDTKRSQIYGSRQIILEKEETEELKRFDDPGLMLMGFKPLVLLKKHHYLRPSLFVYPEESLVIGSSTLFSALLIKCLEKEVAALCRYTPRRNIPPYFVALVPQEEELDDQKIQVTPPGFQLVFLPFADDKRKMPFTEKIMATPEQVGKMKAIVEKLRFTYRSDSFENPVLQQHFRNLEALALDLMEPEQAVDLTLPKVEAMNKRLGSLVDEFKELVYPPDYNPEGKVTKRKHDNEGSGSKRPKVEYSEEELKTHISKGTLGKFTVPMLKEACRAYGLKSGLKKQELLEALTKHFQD

Legend:
[1] = biological target: T1, Myc-tagged FOXL2 W204X (human) (UniProt P58012); test: co-IP; 293T cells transfected with Myc-tagged FOXL2 forms (with Flag-XRCC5 or XRCC6 fragments where indicated); IP with anti-Myc, immunoblot
T1 sequence: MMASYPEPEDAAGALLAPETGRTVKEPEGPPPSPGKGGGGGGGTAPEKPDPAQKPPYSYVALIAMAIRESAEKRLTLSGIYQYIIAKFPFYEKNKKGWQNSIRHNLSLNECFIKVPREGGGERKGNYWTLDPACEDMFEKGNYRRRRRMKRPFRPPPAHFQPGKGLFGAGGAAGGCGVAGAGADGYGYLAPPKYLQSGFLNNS

[2] = biological target: T2, Myc-tagged FOXL2 N109K (human) (UniProt P58012); test: as above
T2 sequence: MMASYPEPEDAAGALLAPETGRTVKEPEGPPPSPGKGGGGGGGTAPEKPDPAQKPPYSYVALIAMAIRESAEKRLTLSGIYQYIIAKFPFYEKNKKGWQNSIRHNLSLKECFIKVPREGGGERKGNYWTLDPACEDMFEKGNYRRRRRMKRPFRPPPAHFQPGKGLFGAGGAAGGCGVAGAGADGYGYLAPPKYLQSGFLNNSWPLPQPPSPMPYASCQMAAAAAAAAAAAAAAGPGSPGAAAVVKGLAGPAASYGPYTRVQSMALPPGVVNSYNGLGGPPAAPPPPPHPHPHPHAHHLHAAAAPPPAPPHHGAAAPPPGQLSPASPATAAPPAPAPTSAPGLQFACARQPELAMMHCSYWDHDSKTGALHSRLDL

[3] = biological target: T3, Myc-tagged FOXL2 C134W (human) (UniProt P58012); test: as above
T3 sequence: T2 sequence with K109N, C134W

[4] = biological target: T4, Myc-tagged FOXL2 I84S (human) (UniProt P58012); test: as above
T4 sequence: T2 sequence with I84S, K109N

[5] = biological target: T5, Myc-tagged full-length wild-type (WT) FOXL2 (human) (UniProt P58012); test: as above
T5 sequence: T2 sequence with K109N

[6] = biological target: T6, Forkhead box protein L2 (FOXL2), endogenous (human (endogenous in KGN)) (UniProt P58012); test: co-IP; endogenous proteins in KGN lysate; IP with anti-FOXL2, anti-XRCC5 or anti-XRCC6 on Dynabeads protein G, immunoblot; also after UV, H2O2, etoposide, MMS, TSA or nicotinamide, SIRT1 overexpression or knock-down, cell-cycle synchronisation
T6 sequence: T2 sequence with K109N

[7] = biological target: T6, Forkhead box protein L2 (FOXL2), endogenous (human (endogenous in KGN)); test: co-IP; endogenous proteins in various non-tumour cell lines (Supplementary Fig. 2b-d)
[8] = biological target: T5, Myc-tagged full-length wild-type (WT) FOXL2 (human); test: co-IP; FOXL2 overexpressed in 293T cells (Supplementary Fig. 2a); constructs and antibodies not given

With “XRCC5 (Ku80), endogenous (from UniProt P13010 1-732)” as the substance, how does the binding [1] read?
The binding was “binds”.

What about the binding [2] of the same substance?
The binding was “binds”.

And the binding [3]?
Its binding is “binds”.

And the binding [4]?
Its binding is “no binding”.

What about the binding [5] of the same substance?
The binding was “binds”.

And the binding [6]?
Its binding is “binds”.

What about the binding [7] of the same substance?
The binding was “binds”.

And the binding [8]?
Its binding is “binds”.

With “XRCC6 (Ku70), endogenous (from UniProt P12956 1-609)” as the substance, how does the binding [1] read?
The binding was “binds”.

What about the binding [2] of the same substance?
The binding was “binds”.

And the binding [3]?
Its binding is “binds”.

And the binding [4]?
Its binding is “no binding”.

What about the binding [5] of the same substance?
The binding was “binds”.

And the binding [6]?
The binding was “binds”.
